These molecules were tested on MYC (assay: cells). Details: Homo sapiens, MV4-11, 4 h, read-out: Myc IC50 (μM).

Q: How did the IC50 turn out when `CC(=O)N1CCc2c(c(N3CCN(C)c4cc(-c5cnn(C)c5)c(C(F)(F)F)cc43)nn2C2CCOCC2)C1` [Example 269, 1-[3-[4-methyl-6-(1-methylpyrazol-4-yl)-7-(trifluoromethyl)-2,3-dihydroquinoxalin-1-yl]-1-tetrahydropyran-4-yl-6,7-dihydro-4H-pyrazolo[4,3-c]pyridin-5-yl]ethanone] was run?
A: 0.007 µM

Q: For `CNC(=O)N1CCc2c(c(N3CCCc4cc(-c5ccc(NC(C)=O)nc5)c(C(F)F)cc43)nn2C2CCOCC2)C1` [Example 252, 3-[6-(6-acetamido-3-pyridyl)-7-(difluoromethyl)-3,4-dihydro-2H-quinolin-1-yl]-N-methyl-1-tetrahydropyran-4-yl-6,7-dihydro-4H-pyrazolo[4,3-c]pyridine-5-carboxamide], which IC50 is on record?
A: 0.005 µM

Q: With `CC(=O)N1CCc2c(c(N3C[C@H](CC#N)c4cc(-c5cnn(C)c5)ccc43)nn2C2COC2)C1` [Example 215, (R)-2-[1-[5-acetyl-1-(oxetan-3-yl)-6,7-dihydro-4H-pyrazolo[4,3-c]pyridin-3-yl]-5-(1-methylpyrazol-4-yl)indolin-3-yl]acetonitrile] as the molecule, how does the IC50 read?
A: 7.65 µM

Q: `CNC(=O)N1CCc2c(c(N3CCCc4cc(-c5cnn(C)c5)c(C(F)F)cc43)nn2C2CCN(CC(F)F)CC2)C1` [Example 335, 1-[1-(2,2-difluoroethyl)-4-piperidyl]-3-[7-(difluoromethyl)-6-(1-methylpyrazol-4-yl)-3,4-dihydro-2H-quinolin-1-yl]-N-methyl-6,7-dihydro-4H-pyrazolo[4,3-c]pyridine-5-carboxamide] was tested. Which IC50 did it give?
A: 0.005 µM

Q: `CC(=O)N1CCc2c(c(N3C[C@@H](CC(F)F)Cc4cc(-c5cnn(C)c5)ccc43)nn2[C@H]2CCOC2)C1` [Example 83, (S,R)-1-[3-[3-(2,2-difluoroethyl)-6-(1-methylpyrazol-4-yl)-3,4-dihydro-2H-quinolin-1-yl]-1-tetrahydrofuran-3-yl-6,7-dihydro-4H-pyrazolo[4,3-c]pyridin-5-yl]ethanone] was tested. Which IC50 did it give?
A: 0.83 µM

Q: `CC(=O)N1CCc2c(c(N3CC(C4CC4)Cc4cc(-c5cnn(C)c5)ccc43)nn2[C@H]2CCOC2)C1` (stereo partly drawn) [Example 117, 1-[3-[3-cyclopropyl-6-(1-methylpyrazol-4-yl)-3,4-dihydro-2H-quinolin-1-yl]-1-((S)-tetrahydrofuran-3-yl)-6,7-dihydro-4H-pyrazolo[4,3-c]pyridin-5-yl]ethanone] was tested. Which IC50 did it give?
A: 0.256 µM

Q: `CCc1cc2c(cc1-c1cnn(C)c1)CCCN2c1nn(C2CCOCC2)c2c1CN(C(=O)NC)CC2` [Example 260, 3-[7-ethyl-6-(1-methylpyrazol-4-yl)-3,4-dihydro-2H-quinolin-1-yl]-N-methyl-1-tetrahydropyran-4-yl-6,7-dihydro-4H-pyrazolo[4,3-c]pyridine-5-carboxamide] was tested. Which IC50 did it give?
A: 0.039 µM

Q: With `CC(=O)N1CCc2c(c(N3CCCc4cc(-c5cnn(C)c5)c(F)cc43)nn2C2CCOC2)C1` (stereo not shown) [Example 142, 1-[3-[7-fluoro-6-(1-methylpyrazol-4-yl)-3,4-dihydro-2H-quinolin-1-yl]-1-tetrahydrofuran-3-yl-6,7-dihydro-4H-pyrazolo[4,3-c]pyridin-5-yl]ethanone] as the molecule, how does the IC50 read?
A: 1.35 µM

Q: How did the IC50 turn out when `C=Cc1cc2c(cc1-c1cnn(C)c1)CCCN2c1nn(C2CCOCC2)c2c1CN(C(=O)NC)CC2` [Example 259, N-methyl-3-[6-(1-methylpyrazol-4-yl)-7-vinyl-3,4-dihydro-2H-quinolin-1-yl]-1-tetrahydropyran-4-yl-6,7-dihydro-4H-pyrazolo[4,3-c]pyridine-5-carboxamide] was run?
A: 0.019 µM

Q: With `CNC(=O)c1ccc(-c2cc3c(cc2C#N)N(c2nn(C4CCOCC4)c4c2CN(C(C)=O)CC4)CCC3)cn1` [Example 133, 5-(1-(5-acetyl-1-(tetrahydro-2H-pyran-4-yl)-4,5,6,7-tetrahydro-1H-pyrazolo[4,3-c]pyridin-3-yl)-7-cyano-1,2,3,4-tetrahydroquinolin-6-yl)-N-methylpicolinamide] as the molecule, how does the IC50 read?
A: 0.047 µM

Q: `Cn1cc(-c2ccc3c(c2)CCCN3c2nn([C@H]3CCOC3)c3c2CN(C(N)=O)CC3)cn1` [Example 150, 3-[6-(1-methylpyrazol-4-yl)-3,4-dihydro-2H-quinolin-1-yl]-1-[(3S)-tetrahydrofuran-3-yl]-6,7-dihydro-4H-pyrazolo[4,3-c]pyridine-5-carboxamide] was tested. Which IC50 did it give?
A: 14.4 µM

Q: How did the IC50 turn out when `CC(=O)N1CCc2c(c(N3CCCc4cc(-c5cnn(C)c5)c(F)cc43)nn2[C@H]2CCOC2)C1` [Example 143, 1-[3-[7-fluoro-6-(1-methylpyrazol-4-yl)-3,4-dihydro-2H-quinolin-1-yl]-1-[(3S)-tetrahydrofuran-3-yl]-6,7-dihydro-4H-pyrazolo[4,3-c]pyridin-5-yl]ethanone] was run?
A: 0.16 µM

Q: For `CC(=O)N1CCc2c(c(N3CCc4c(Cl)cc(-c5cnn(C)c5)cc43)nn2C2CCOC2)C1` (stereo not shown) [Example 207, 1-[3-[4-chloro-6-(1-methylpyrazol-4-yl)indolin-1-yl]-1-tetrahydrofuran-3-yl-6,7-dihydro-4H-pyrazolo[4,3-c]pyridin-5-yl]ethanone], which IC50 is on record?
A: 1.22 µM

Q: For `CNC(=O)N1CCc2c(c(N3CCC(C)c4cc(-c5cnn(C)c5)c(C(F)F)cc43)nn2C2CCOCC2)C1` (stereo not shown) [Example 248, 3-[7-(difluoromethyl)-4-methyl-6-(1-methylpyrazol-4-yl)-3,4-dihydro-2H-quinolin-1-yl]-N-methyl-1-tetrahydropyran-4-yl-6,7-dihydro-4H-pyrazolo[4,3-c]pyridine-5-carboxamide], which IC50 is on record?
A: 0.017 µM

Q: With `CNC(=O)N1CCc2c(c(N3CCN(C)c4cc(-c5cnn(C)c5)c(C(F)(F)F)cc43)nn2C2CCN(C(C)=O)CC2)C1` [Example 329, 1-(1-acetyl-4-piperidyl)-N-methyl-3-[4-methyl-6-(1-methylpyrazol-4-yl)-7-(trifluoromethyl)-2,3-dihydroquinoxalin-1-yl]-6,7-dihydro-4H-pyrazolo[4,3-c]pyridine-5-carboxamide] as the molecule, how does the IC50 read?
A: 0.007 µM

Q: How did the IC50 turn out when `CC(=O)N1CCc2c(c(N3CCCc4cc(-c5cnn(C)c5)ccc43)nn2C2CCCO2)C1` (stereo not shown) [Example 73, 1-[3-[6-(1-methylpyrazol-4-yl)-3,4-dihydro-2H-quinolin-1-yl]-1-tetrahydrofuran-2-yl-6,7-dihydro-4H-pyrazolo[4,3-c]pyridin-5-yl]ethanone] was run?
A: 1.57 µM

Q: With `CC(=O)N1CCc2c(c(Nc3cc(C#N)cc(-c4cnn(C)c4)c3)nn2C)C1` [Example 20, 3-[(5-acetyl-1-methyl-6,7-dihydro-4H-pyrazolo[4,3-c]pyridin-3-yl)amino]-5-(1-methylpyrazol-4-yl)benzonitrile] as the molecule, how does the IC50 read?
A: 0.33 µM

Q: `CC(=O)N1CCc2c(c(Nc3ccc(-c4cnn(C)c4)cc3Cl)nn2C2CCOC2)C1` (stereo not shown) [Example 293, 1-[3-[2-chloro-4-(1-methylpyrazol-4-yl)anilino]-1-tetrahydrofuran-3-yl-6,7-dihydro-4H-pyrazolo[4,3-c]pyridin-5-yl]ethanone] was tested. Which IC50 did it give?
A: 0.35 µM

Q: `CC(=O)N1CCc2c(c(N3CCc4ccccc43)nn2CC2CC2)C1` [Example 172, 1-[1-(cyclopropylmethyl)-3-indolin-1-yl-6,7-dihydro-4H-pyrazolo[4,3-c]pyridin-5-yl]ethanone] was tested. Which IC50 did it give?
A: 1.69 µM

Q: How did the IC50 turn out when `CC(=O)N1CCc2c(c(Nc3cccc(C)c3)nn2C(C)c2ccccc2)C1` [Example 197, (S,S)-1-[3-[3-methyl-5-(1-methylpyrazol-4-yl)indolin-1-yl]-1-tetrahydrofuran-3-yl-6,7-dihydro-4H-pyrazolo[4,3-c]pyridin-5-yl]ethanone] was run?
A: 1.17 µM

Q: With `CC(=O)N1CCc2c(c(N3C[C@H](C)Cc4cc(-c5cnn(C)c5)c(C#N)cc43)nn2C2CCOCC2)C1` (single isomer, unassigned) [Example 356] as the molecule, how does the IC50 read?
A: 0.049 µM

Q: How did the IC50 turn out when `CNC(=O)N1CCc2c(c(N3CCCc4cc(-c5cnn(C)c5)c(C(F)F)cc43)nn2[C@H]2CCCOCC2)C1` [Example 379, (S)-3-(7-(difluoromethyl)-6-(1-methyl-1H-pyrazol-4-yl)-3,4-dihydroquinolin-1(2H)-yl)-N-methyl-1-(oxepan-4-yl)-1,4,6,7-tetrahydro-5H-pyrazolo[4,3-c]pyridine-5-carboxamide] was run?
A: 0.006 µM

Q: `CNC(=O)N1CCc2c(c(N3C[C@H](C)N(C)c4cc(-c5cnn(C)c5)c(C#N)cc43)nn2C2CCOCC2)C1` [Example 267, (S)-3-[7-cyano-3,4-dimethyl-6-(1-methylpyrazol-4-yl)-2,3-dihydroquinoxalin-1-yl]-N-methyl-1-tetrahydropyran-4-yl-6,7-dihydro-4H-pyrazolo[4,3-c]pyridine-5-carboxamide] was tested. Which IC50 did it give?
A: 0.082 µM

Q: For `CC(=O)N1CCc2c(c(N3CCCc4cc(-c5cnn(C)c5)c(C(F)F)cc43)nn2C2COC2)C1` [Example 122, 1-[3-[7-(difluoromethyl)-6-(1-methylpyrazol-4-yl)-3,4-dihydro-2H-quinolin-1-yl]-1-(oxetan-3-yl)-6,7-dihydro-4H-pyrazolo[4,3-c]pyridin-5-yl]ethanone], which IC50 is on record?
A: 0.274 µM

Q: `CC(=O)N1CCc2c(c(N3CCCc4cc(-c5cnn(C)c5)c(C(F)F)cc43)nn2C2CCN(CC(F)F)CC2)C1` [Example 345, 1-[1-[1-(2,2-difluoroethyl)-4-piperidyl]-3-[7-(difluoromethyl)-6-(1-methylpyrazol-4-yl)-3,4-dihydro-2H-quinolin-1-yl]-6,7-dihydro-4H-pyrazolo[4,3-c]pyridin-5-yl]ethanone] was tested. Which IC50 did it give?
A: 0.013 µM

Q: Which IC50 does the source give for `CNC(=O)c1cccc(Nc2nn(CC3CC3)c3c2CN(C(C)=O)CC3)c1` [Example 219, 1-(5-acetyl-1-tetrahydropyran-4-yl-6,7-dihydro-4H-pyrazolo[4,3-c]pyridin-3-yl)-5-(1-methylpyrazol-4-yl)indoline-6-carbonitrile] here?
A: 0.79 µM

Q: `CC(=O)N1CCc2c(c(N(C)c3ccc(-c4cn(C)nc4C(F)(F)F)cc3)nn2C)C1` [Example 224, 1-[1-methyl-3-[N-methyl-4-[1-methyl-3-(trifluoromethyl)pyrazol-4-yl]anilino]-6,7-dihydro-4H-pyrazolo[4,3-c]pyridin-5-yl]ethanone] was tested. Which IC50 did it give?
A: > 4 µM

Q: Which IC50 does the source give for `CC(=O)N1CCc2c(c(N3CCOc4cc(-c5cnn(C)c5)c(C(F)F)cc43)nn2C2CCOCC2)C1` [Example 278, 1-[3-[2,3-difluoro-4-(1-methylpyrazol-4-yl)anilino]-1-tetrahydrofuran-3-yl-6,7-dihydro-4H-pyrazolo[4,3-c]pyridin-5-yl]ethanone] here?
A: 0.029 µM
